Laboratory results published in article PMC4742234, “Screening of Drug Metabolizing Enzymes for the Ginsenoside Compound K In Vitro: An Efficient Anti-Cancer Substance Originating from Panax Ginseng” (PLoS ONE, 2016).

Substrate: CC(C)=CCC[C@](C)(OC1O[C@H](CO)[C@@H](O)[C@H](O)[C@H]1O)[C@H]1CC[C@]2(C)[C@@H]1[C@H](O)C[C@@H]1[C@@]3(C)CC[C@H](O)C(C)(C)[C@@H]3CC[C@]12C
Test: Kinetic analysis of CK metabolism by recombinant CYP3A4
Format: in vitro ADME, human
Conditions: other: recombinant CYP3A4 10 pmol, CK 10–100 μM; pH 7.4; 37.0 °C
Description: The method was conducted according to our previous study with some modifications. The CYP isoform-specific probe reactions used were phenacetin O-deethylation (for CYP1A2), coumarin 7-hydroxylation (for CYP2A6), tolbutamide 4-hydroxylation (for CYP2C9), metoprolol α-hydroxylation (for CYP2D6), chlorzoxazone 6-hydroxylation (for CYP2E1),S-Mephenytoin 4-hydroxylation (for CYP2C19), and midazolam 1-hydroxylation (for CYP3A4). The kinetic study of CK was conducted with HLMs. A 0.2 mL incubation mixture that consisted of CK (as a substrate), the HLMs (0.5 mg/mL) or CYP isoforms (10 pmol), and 0.1 M sodium phosphate buffer (pH 7.4) was pre-warmed for 5 min at 37°C. The reaction was initiated by the addition of 1 mg/mL triphosphopyridine nucleotide (NADPH). […]
The kinetic parameters for the metabolism of CK were determined by incubating increasing concentrations of CK (10–100 μM) at 37°C with the HLMs and NADPH under the incubation conditions as described in detail previously. The equation of CK reaction velocity (V) in the HLMs or CYP isoforms is expressed as V = (C0–Ct)/T/Cp, where C0and Ct are the initial and final concentrations of CK in the incubation solution, respectively, T is the incubation time (min), and Cp is the protein concentration (mg/mL or nmol). All values were expressed as the mean±standard deviation (SD). […]

B1: recombinant CYP3A4 (Homo sapiens) (protein)
chain: MALIPDLAMETWLLLAVSLVLLYLYGTHSHGLFKKLGIPGPTPLPFLGNILSYHKGFCMFDMECHKKYGKVWGFYDGQQPVLAITDPDMIKTVLVKECYSVFTNRRPFGPVGFMKSAISIAEDEEWKRLRSLLSPTFTSGKLKEMVPIIAQYGDVLVRNLRREAETGKPVTLKDVFGAYSMDVITSTSFGVNIDSLNNPQDPFVENTKKLLRFDFLDPFFLSITVFPFLIPILEVLNICVFPREVTNFLRKSVKRMKESRLEDTQKHRVDFLQLMIDSQNSKETESHKALSDLELVAQSIIFIFAGYETTSSVLSFIMYELATHPDVQQKLQEEIDAVLPNKAPPTYDTVLQMEYLDMVVNETLRLFPIAMRLERVCKKDVEINGMFIPKGVVVMIPSYALHRDPKYWTEPEKFLPERFSKKNKDNIDPYIYTPFGSGPRNCIGMRFALMNMKLALIRVLQNFSFKPCKETQIPLKLSLGGLLQPEKPVVLKVESRDGTVSGA
notes: purchased Cypex Ltd. (U.K.)
In the case of B1, the Km is reported as 27.03 ± 5.04 µM.
